Assay results taken from the supplement of paper PMC11417369.
± gives the standard deviation of the averaged measurements. The list shows a part of the results.

system: PfAP2-EXP AP2 domain (GST-tagged); test: gcPBM binding intensity (ln(normalized median fluorescence intensity)); higher = stronger DNA binding
Procedure, shortened: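 For binding intensity, the highest Masliner-normalised natural-log median intensity across replicate spots of either probe orientation was taken. Protein bound to the array was stained with Alexa488 anti-GST antibody and scanned at 488 nm. The protein, GST-tagged P. falciparum DNA-binding domains from E. coli at about 25 μg on average, had been applied for 1 h to an Agilent 4 × 180k array of primer-extended double-stranded 36-bp intergenic genomic probes and negative controls.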

In order of rising “gcPBM binding intensity (ln)” value:
1. TTTTTTTTTTTTTTTTGTACATATAAAAATACGTAA [XGTACX_site6003]  8.11 ± 0.58
2. CATTAAATATATAAATGTACAAATATATTTTTCAAA [XGTACX_site4429]  8.12 ± 0.35
3. AAAATAAGAAATAGATGTACTTATAAATAAATACAA [XGTACX_site4441]  8.15 ± 0.11
4. TCATTCATAAAAATAACACACAAAAAAAAAAAAAAA [CACACA_site1800]  8.15 ± 0.53
5. TTTATATTATTAGAAACACACATTAGATTAAAATTA [CACACA_site3286]  8.2 ± 0.47
6. TTTTTTAATATATTATTATAAATATTTTTTATGTGT [GTGCAC_negctrl_site712]  8.21 ± 0.39
7. TTATAAATGTATTTATGTACATATAAATATATATAA [XGTACX_site2970]  8.22 ± 0.26
8. TATTTAATTACATGAACACACATTATATATTTTTAA [CACACA_site5615]  8.23 ± 0.35
9. TATTTATAGATATATACACACATATTTATATTTATA [CACACA_site6441]  8.24 ± 0.39
10. AAATTATATTATTGAACACACGTTTGGTAATGTTTT [CACACA_site5469]  8.24 ± 0.43
11. TTATTGAAAAAAGAACAAAAAAAAAAAGAAAAATTA [XGTACX_negctrl_site438]  8.28 ± 0.55
12. ACATAATAAAAATGACGTACAATTTTTTTTTTTCAT [XGTACX_site8340]  8.29 ± 0.3
13. AACATTATGTTTATTTGTACATATAAATATATGTAA [XGTACX_site7389]  8.29 ± 0.34
14. TCTTTTATGATATTTACACACAAACGTGAGATAGCT [CACACA_site2312]  8.3 ± 0.47
15. TGCTATAATTTATATACACACAAATATATACACATA [CACACA_site9356]  8.32 ± 0.33
16. ATATAACACATTAGTTGTACTATTTTTAATTGGTGA [XGTACX_site961]  8.33 ± 0.33
17. TTTTTTTTTTTAAAAAGTACACAATTAATTAATATA [XGTACX_site8494]  8.33 ± 0.37
18. ATGCGTTAATCTATATATATTATGTATAGATTTTCA [CACACA_negctrl_site1650]  8.38 ± 0.38
19. AACATATTTATGATGTGTACCTACATAATAGAATTT [XGTACX_site141]  8.38 ± 0.32
20. AAAAAGAAATCCAATACACACCTTCAAAATGGGTAT [CACACA_site4978]  8.38 ± 0.44
21. TTTTAAATATATGTGCTATTATATTAAGAGATGTAA [GTGCAC_negctrl_site560]  8.38 ± 0.18
22. GGCATAAATATATGCACACACAAAAAAAAAAAAAAA [CACACA_site59]  8.38 ± 0.38
23. CTCTACGAATTCATAGTGCAAAGAGCTAATTTTTTC [GTGCAC_site9710]  8.41 ± 0.17
24. ACAACATATGTTATCACACACATATAAATATAAATA [CACACA_site7038]  8.41 ± 0.54
25. AAATCTTAACTCTATGCACACATAAAAGTATATAAA [CACACA_site8709]  8.41 ± 0.15
26. ATATTGTTTTATATAGAACACACATAAAAATATATA [CACACA_site8314]  8.41 ± 0.4
27. TTTCGGTTTTTTTTTATTTTTTTTTTTTTATTATTT [CACACA_negctrl_site335]  8.41 ± 0.62
28. GTAAACAAAATATTTTGTACATATTTTATATTATTT [XGTACX_site7837]  8.43 ± 0.19
29. TCATTATATCATGGTAGTACTCATTAATAATACGTA [XGTACX_site8701]  8.45 ± 0.33
30. TGACTATGTATATTTAGTACATAAAATCAATAATAT [XGTACX_site4082]  8.45 ± 0.32
31. ATATTTTGATAATATTGTACAAAAACATTAAAATGT [XGTACX_site8361]  8.46 ± 0.45
32. GTTAATAAAAATATATGTACATAATTATTATGAAAA [XGTACX_site3030]  8.48 ± 0.32
33. GAATTGTATTGGTACTGTACAATTAAATTAAAAAAA [XGTACX_site1891]  8.48 ± 0.36
34. GAAAGAATAAAATTTACACACATATATATATACATA [CACACA_site2250]  8.5 ± 0.4
35. ATAATAAATATATAATGTACATATTATGTTCTTTAT [XGTACX_site8655]  8.51 ± 0.42
36. AAAAAAAAAAAACACACACACACACCCATATATAAA [CACACA_site1170]  8.51 ± 0.59
37. AATATGATATATATATGTACATATATATAATATAAT [XGTACX_site3072]  8.52 ± 0.41
38. CCTATTTATAAATACACACACATATATAAATAAATA [CACACA_site5629]  8.54 ± 0.43
39. AACCACATACATATAACACACATATACAATATATAT [CACACA_site8607]  8.55 ± 0.45
40. CAATGTTGTACATACACACACACAAAAAAAAAATAA [CACACA_site2407]  8.57 ± 0.47
41. CGCTCTTATAAATGTTGTACATAAAACTGTTCATTA [XGTACX_site3409]  8.58 ± 0.35
42. TTCTTTGCTTTTCAAACACACAAAAGTTATTATATT [CACACA_site521]  8.62 ± 0.33
43. AAAGTATAATAATACACACACTTTAAAAGTTAAATG [CACACA_site7550]  8.62 ± 0.33
44. ACATAAAATTATTATACATGCATATTTAATTTTTTC [TGCATGCA_site353]  8.64 ± 0.22
45. TGTAGTCTGGAGAAGAGTACATAGTATCTGGTAGCT [XGTACX_site2029]  8.65 ± 0.47
46. TTTTGTAGATATTGAAGTACAAAAAAAATGTAAAAG [XGTACX_site5905]  8.66 ± 0.092
47. TATATATTTTTTAAACCACACACAATATAGAGTATA [CACACA_site8106]  8.67 ± 0.41
48. TTTTTTGTTAAGTTGGTGCAAACAATAGTTATTGAC  8.67 ± 0.11
49. GATAATAATAAACAACCACACACAAAAAAACAAAAA [CACACA_site9074]  8.68 ± 0.64
50. ATAAAAAAACACACTCGTACACACATATTTTCTTTC [XGTACX_site6565]  8.69 ± 0.41
51. TACATAATAACATGTACACACATTCTTCTATAAATG [CACACA_site4061]  8.69 ± 0.23
52. TTAATGTAGAGAAAATGTACATTTTATTAAAACAAT [XGTACX_site6376]  8.7 ± 0.35
53. GAAATTTCCCATATTACACACATACTATGATATATA [CACACA_site5987]  8.7 ± 0.52
54. AGGGAAAAAAAAAAAGTGCATTTGTATTAAATGAAT  8.71 ± 0.15
55. ATATAGGTAAAAAGTATACACACGTTGACACATTCT [CACACA_site1199]  8.71 ± 0.53
56. ATTTTGATGATGTATGCACACATTGAAAATGAGAAA [CACACA_site2916]  8.72 ± 0.33
57. AAAAGAAAATAAGAAACACACAAAAATATATAAAAA [CACACA_site3697]  8.72 ± 0.45
58. GATCATTCAGTTTTATCACACACAATCAAACATATA [CACACA_site8882]  8.73 ± 0.4
59. ATCGGTAATATTAACACACACATTTATATATATTTA [CACACA_site1084]  8.74 ± 0.38
60. AATATTATTTAGGAGCGTACGTTTTATTTACATATT [XGTACX_site5188]  8.74 ± 0.44
61. CACACGCACAGACACACACACACACGGATATAAATA [CACACA_site6301]  8.77 ± 0.41
62. ATATAAATCAAAAACGCACACATAAATATTTATATA [CACACA_site2442]  8.77 ± 0.54
63. TTCAAATTTCCACATACACACCTTGTAGATCTATAT [CACACA_site6270]  8.78 ± 0.53
64. CATAATGTAAATAAGTGTACACATATATAATACATA [XGTACX_site3108]  8.78 ± 0.33
65. TTTTTTATTTTTGCGTGTACATAATAATGAATCTTC [XGTACX_site8077]  8.78 ± 0.46
66. GCACATTTTTTTATCACACATATAATTACAATATAA [CACACA_site5585]  8.78 ± 0.32
67. ACTACATAATATTAACGTACATATTATAATACTTGC [XGTACX_site954]  8.79 ± 0.34
68. TTGTTCATATTTTTTATTGTGTTAATATTTATAAAA [GTGCAC_negctrl_site423]  8.79 ± 0.46
69. TATATCTACTACACACGTACACAAAATAAGATACCT [XGTACX_site7886]  8.79 ± 0.52
70. AAATATAAGAAAAAGGTGCTTTTTTTTTTTTTTTTT [GTGCAC_site9700]  8.825 ± 0.007
71. CATTAAAAAGAAAGTTCACACACATATATATGACGG [CACACA_site8836]  8.84 ± 0.57
72. TCACTACATTTTGGACGTACACAACTTGATATATTG [XGTACX_site4775]  8.85 ± 0.4
73. TTTTTTTTTTTTTTGGTGCACATAGAAATTCTAAAA [GTGCAC_site9809]  8.88 ± 0.13
74. AAAAGATGCGCATACACACAGATGAATAACAAAAAA [CACACA_site6865]  8.88 ± 0.57
75. ATGATATACTTGAGTGTGCACAAACTATTACTTACA  8.97 ± 0.13
76. GGACATTTTTATAAGGTGCACGGTTTTGATATTACT [GTGCAC_site9892]  8.975 ± 0.035
77. TATATATCGCCCTTCACACACACACGGATATAAATA [CACACA_site7221]  8.98 ± 0.47
78. ATAATGATATATAGTACACACAAAAATGGAAGTAAA [CACACA_site7541]  8.98 ± 0.43
79. ATAATATAATTTTGCAGTACCCAAAAAACAAAATAA [XGTACX_site4827]  9.04 ± 0.72
80. TACGTATGCCTGTGATGTACATATATATATACATAC [XGTACX_site4728]  9.05 ± 0.43
81. CCTCTTTTTATTCTCACACACGTTTATATATAAAGT [CACACA_site4992]  9.08 ± 0.31
82. TATAAACATTATAAATGTACAAATATATATATATAT [XGTACX_site3218]  9.86 ± 0.4
83. TATATATATATGTGCACACCAATTGTATGTAATATA [CACACA_site3889]  10.04 ± 0.092
84. ATATATATATATATATGTACATATTTGATTTTTCTT [XGTACX_site8171]  10.1 ± 0.29
85. ATAAAAGAATAAATAAAACACATATATATATATATA [XGTACX_negctrl_site31]  10.1 ± 0.14
86. AAAAAACTATTATGTGCATGCACAAGTCAGGTAAAT [TGCATGCA_site791]  10.1 ± 0.11
87. ATCTATAAATTTCCACGTACATATATATATATATAT [XGTACX_site4502]  10.1 ± 0.13
88. ATATATATATATATATGTACTTATTTGAATACTAAA [XGTACX_site2330]  10.2 ± 0.53
89. AAGGGTTGCCTGTGTAGTACATATATATATATATAT [XGTACX_site8555]  10.2 ± 0.21
